Data: US20220348665A1 (ABL BIO, published 2022)

B1: ch11F11-48G5 (bivalent bispecific antibody) (bispecific antibody)
chain 1: EVQLQESGGGLVQPGGSLRLSCATSGFTFSDFYMEWVRQPPGKRLEWIAASRNKANDYTTEYSASVKGRFIVSRDTSQSILYLQMNALRAEDTAIYYCARDAHGKPFAYWGQGTLVTVSA[human IgG1 constant region cut from this listing]GGGGSGGGGSGGGGSQSVLTQPPSASGTPGQRVTISCSGSSSNIGNNDVSWYQQLPGTAPKLLIYDNNHRPSGVPDRFSGSKSGTSASLAISGLRSEDEADYYCAAWDDSLNAYVFGCGTKLTVLGGGGSGGGGSGGGGSGGGGSEVQLLESGGGLVQPGGSLRLSCAASGFTFSDYDMSWVRQAPGKCLEWVSSIYPNGSSKYYADSVKGRFTISRDNSKNTLYLQMNSLRAEDTAVYYCAKAGINCTTLRCSSYDAMDVWGQGTLATVSS
chain 2: DIVMTQSPSSLAVSVGEKVTMS[about 80 residues cut from this listing]FGGGTKLEIK
B2: ch11F11-54H4 (bivalent bispecific antibody) (bispecific antibody)
chain 1: EVQLQESGGGLVQPGGSLRLSCATSGFTFSDFYMEWVRQPPGKRLEWIAASRNKANDYTTEYSASVKGRFIVSRDTSQSILYLQMNALRAEDTAIYYCARDAHGKPFAYWGQGTLVTVSA[human IgG1 constant region cut from this listing]GGGGSGGGGSGGGGSQSVLTQPPSASGTPGQRVTISCSGSSSNIGSNTVTWYQQLPGTAPKLLIYADSKRPSGVPDRFSGSKSGTSASLAISGLRSEDEADYYCGTWDDSLNAYVFGCGTKLTVLGGGGSGGGGSGGGGSGGGGSEVQLLESGGGLVQPGGSLRLSCAASGFTFSDYDMSWVRQAPGKCLEWVSAISSDGSSAYYAASVKGRFTISRDNSKNTLYLQMNSLRAEDTAVYYCAKATIYTSDAPWSSYDAMDVWGQGTLVTVSS
chain 2: DIVMTQSPSSLAVSVGEKVTMS[about 80 residues cut from this listing]FGGGTKLEIK
B3: ch11F11-B11 (bivalent bispecific antibody) (bispecific antibody)
chain 1: EVQLQESGGGLVQPGGSLRLSCATSGFTFSDFYMEWVRQPPGKRLEWIAASRNKANDYTTEYSASVKGRFIVSRDTSQSILYLQMNALRAEDTAIYYCARDAHGKPFAYWGQGTLVTVSA[human IgG1 constant region cut from this listing]GGGGSGGGGSGGGGSQSVLTQPPSASGTPGQRVTISCSGSSSNIGNNDVSWYQQLPGTAPKLLIYDDNHRPSGVPDRFSGSKSGTSASLAISGLRSEDEADYYCGAWDYSLSGYVFGCGTKLTVLGGGGSGGGGSGGGGSGGGGSEVQLLESGGGLVQPGGSLRLSCAASGFTFSDYDMSWVRQAPGKCLEWVSAISYDNGNKYYADSVKGRFTISRDNSKNTLYLQMNSLRAEDTAVYYCAKAGVACTEHMCSSYDAMDVWGQGTLVTVSS
chain 2: DIVMTQSPSSLAVSVGEKVTMS[about 80 residues cut from this listing]FGGGTKLEIK
B4: ch11F11-60H6 (bivalent bispecific antibody) (bispecific antibody)
chain 1: EVQLQESGGGLVQPGGSLRLSCATSGFTFSDFYMEWVRQPPGKRLEWIAASRNKANDYTTEYSASVKGRFIVSRDTSQSILYLQMNALRAEDTAIYYCARDAHGKPFAYWGQGTLVTVSA[human IgG1 constant region cut from this listing]GGGGSGGGGSGGGGSQSVLTQPPSASGTPGRRVTISCTGSSSNIGNNDVSWYQQLPGTAPKLLIYANSHRPSGVPDRFSGSKSGTSASLAISGLRSEDEADYYCGSWDDSLNGYVFGCGTKLTVLGGGGSGGGGSGGGGSGGGGSEVQLLESGGGLVQPGGSLRLSCAASGFTFSDYDMSWVRQAPGKCLEWVSMIYSGSSSKYYADSVKGRFTISRDNSKNTLYLQMNSLRAEDTAVYYCARASIACTLQACSYDNAMDVWGQGTLVTVSS
chain 2: DIVMTQSPSSLAVSVGEKVTMS[about 80 residues cut from this listing]FGGGTKLEIK
B5: ch11F11-F06 (bispecific antibody form of 1564 affinity variant F06) (bispecific antibody)
heavy: EVQLQESGGGLVQPGGSLRLSCATSGFTFSDFYMEWVRQPPGKRLEWIAASRNKANDYTTEYSASVKGRFIVSRDTSQSILYLQMNALRAEDTAIYYCARDAHGKPFAYWGQGTLVTVSA[human IgG1 constant region cut from this listing]GGGGSGGGGSGGGGSQSVLTQPPSASGTPGQRVTISCTGSSSNIGSNDVSWYQQLPGTAPKLLIYANSNRPSGVSDRFSGSKSGTSASLAISGLRSEDEADYYCGTWAGSLNGYVFGCGTKLTVLGGGGSGGGGSGGGGSGGGGSEVQLLESGGGLVQPGGSLRLSCAASGFTFSSYDMSWVRQAPGKCLEWVSAISYDNGNTYYADSVKGRFTISRDNSKNTLYLQMNSLRAEDTAVYYCAKGVLTTLMNWFDYWGQGTLVTVSS
light: DIVMTQSPSSLAVSVGEKVTMS[about 80 residues cut from this listing][about 120 residues cut from this listing]
B6: ch11F11-E06 (bispecific antibody form of 1564 affinity variant E06) (bispecific antibody)
chain 1: EVQLQESGGGLVQPGGSLRLSCATSGFTFSDFYMEWVRQPPGKRLEWIAASRNKANDYTTEYSASVKGRFIVSRDTSQSILYLQMNALRAEDTAIYYCARDAHGKPFAYWGQGTLVTVSA[human IgG1 constant region cut from this listing]GGGGSGGGGSGGGGSQSVLTQPPSASGTPGQRVTISCTGSSSNIGSNDVSWYQQLPGTAPKLLIYANSNRPSGVSDRFSGSKSGTSASLAISGLRSEDEADYYCGAWDHSLNGYVFGGGTKLTVLGGGGSGGGGSGGGGSGGGGSEVQLLESGGGLVQPGGSLRLSCAASGFTFSSYDMSWVRQAPGKGLEWVSAISYDNGNTYYADSVKGRFTISRDNSKNTLYLQMNSLRAEDTAVYYCAKGVLTTLMNWFDYWGQGTLVTVSS
chain 2: DIVMTQSPSSLAVSVGEKVTMS[about 80 residues cut from this listing]FGGGTKLEIK
B7: ch11F11-D03 (bispecific antibody form of 1564 affinity variant D03) (bispecific antibody)
chain 1: EVQLQESGGGLVQPGGSLRLSCATSGFTFSDFYMEWVRQPPGKRLEWIAASRNKANDYTTEYSASVKGRFIVSRDTSQSILYLQMNALRAEDTAIYYCARDAHGKPFAYWGQGTLVTVSA[human IgG1 constant region cut from this listing]GGGGSGGGGSGGGGSQSVLTQPPSASGTPGQRVTISCTGSSSNIGSNDVSWYQQLPGTAPKLLIYANSNRPSGVSDRFSGSKSGTSASLAISGLRSEDEADYYCGAWDDSLNGYVFGGGTKLTVLGGGGSGGGGSGGGGSGGGGSEVQLLESGGGLVQPGGSLRLSCAASGFTFSSYDMSWVRQAPGKGLEWVSAISYDNGQTYYADSVKGRFTISRDNSKNTLYLQMNSLRAEDTAVYYCAKGVLTTLMNWFDYWGQGTLVTVSS
chain 2: DIVMTQSPSSLAVSVGEKVTMS[about 80 residues cut from this listing]FGGGTKLEIK
B8: ch11F11-B09 (bispecific antibody form of 1564 affinity variant B09) (bispecific antibody)
chain 1: EVQLQESGGGLVQPGGSLRLSCATSGFTFSDFYMEWVRQPPGKRLEWIAASRNKANDYTTEYSASVKGRFIVSRDTSQSILYLQMNALRAEDTAIYYCARDAHGKPFAYWGQGTLVTVSA[human IgG1 constant region cut from this listing]GGGGSGGGGSGGGGSQSVLTQPPSASGTPGQRVTISCTGSSSNIGSNDVSWYQQLPGTAPKLLIYANSNRPSGVSDRFSGSKSGTSASLAISGLRSEDEADYYCGAWEESLNGYVFGGGTKLTVLGGGGSGGGGSGGGGSGGGGSEVQLLESGGGLVQPGGSLRLSCAASGFTFSSYDMSWVRQAPGKGLEWVSAISYDNGNTYYADSVKGRFTISRDNSKNTLYLQMNSLRAEDTAVYYCAKGVLTTLMNWFDYWGQGTLVTVSS
chain 2: DIVMTQSPSSLAVSVGEKVTMS[about 80 residues cut from this listing]FGGGTKLEIK
B9: ch11F11-A06 (bispecific antibody form of 1564 affinity variant A06) (bispecific antibody)
chain 1: EVQLQESGGGLVQPGGSLRLSCATSGFTFSDFYMEWVRQPPGKRLEWIAASRNKANDYTTEYSASVKGRFIVSRDTSQSILYLQMNALRAEDTAIYYCARDAHGKPFAYWGQGTLVTVSA[human IgG1 constant region cut from this listing]GGGGSGGGGSGGGGSQSVLTQPPSASGTPGQRVTISCTGSSSNIGSNDVSWYQQLPGTAPKLLIYANSNRPSGVSDRFSGSKSGTSASLAISGLRSEDEADYYCGASWDEWLNGYVFGGGTKLTVLGGGGSGGGGSGGGGSGGGGSEVQLLESGGGLVQPGGSLRLSCAASGFTFSSYDMSWVRQAPGKGLEWVSAISYDNGNTYYADSVKGRFTISRDNSKNTLYLQMNSLRAEDTAVYYCAKGVLTTLMNWFDYWGQGTLVTVSS
chain 2: DIVMTQSPSSLAVSVGEKVTMS[about 80 residues cut from this listing]FGGGTKLEIK
B10: ch11F11-B02 (bispecific antibody form of 1564 affinity variant B02) (bispecific antibody)
chain 1: EVQLQESGGGLVQPGGSLRLSCATSGFTFSDFYMEWVRQPPGKRLEWIAASRNKANDYTTEYSASVKGRFIVSRDTSQSILYLQMNALRAEDTAIYYCARDAHGKPFAYWGQGTLVTVSA[human IgG1 constant region cut from this listing]GGGGSGGGGSGGGGSQSVLTQPPSASGTPGQRVTISCTGSSSNIGSNDVSWYQQLPGTAPKLLIYANSNRPSGVSDRFSGSKSGTSASLAISGLRSEDEADYYCGTWDDSLNGYVFGGGTKLTVLGGGGSGGGGSGGGGSGGGGSEVQLLESGGGLVQPGGSLRLSCAASGFTFSSYDMSWVRQAPGKGLEWVSAISYDNGNTYYADSVKGRFTISRDNSKNTLYLQMNSLRAEDTAVYYCAKGVLTTLMNWFDYWGQGTLVTVSS
chain 2: DIVMTQSPSSLAVSVGEKVTMS[about 80 residues cut from this listing]FGGGTKLEIK

target: T1, monkey IGF1R, recombinant, His tag at C-terminus (monkey); test: ELISA, monkey IGF1R coated, anti-human Fab HRP
T1 construct: also called Monkey IGF1R (National Research Council Canada)

EC50 [nM]	Binder
6.69	B1
8.83	B2
180	B3

target: T2, mouse IGF1R, recombinant, His tag at C-terminus (mouse, UniProt Q60751, in part); test: ELISA, mouse IGF1R coated, anti-human Fab HRP
T2 construct: also called mouse IGF1R (R&D systems, 6630-GR/CF)

EC50 [nM]	Binder
6.2	B1
18.6	B4
148	B3

target: T3, human IGF1R extracellular domain, recombinant, His tag at C-terminus (human); test: ELISA on ECD of IGF1R, bispecific form
T3 construct: also called human IGF1R ECD; ECD of IGF1R

EC50 [nM]	Binder
0.857	B5

target: T3, human IGF1R extracellular domain, …; test: ELISA on ECD of IGF1R, bispecific form; remark: another data set of the same source

EC50 [nM]	Binder
0.467	B5
0.668	B6
0.666	B7
1.08	B8
1.19	B9
0.919	B10

target: T4, rat IGF1R, recombinant, His tag at C-terminus (rat, UniProt P24062, in part); test: ELISA, rat IGF1R coated, anti-human Fab HRP
T4 construct: also called rat IGF1R (National Research Council Canada)

EC50 [nM]	Binder
2.44	B1
38	B4
14.2	B2
35.1	B3
